Measured values published in the RNAGym collection of RNA variant scans (doi:10.1073/pnas.2313332121).
This sample is rich in variants without activity.

B1: TPR 5TU (parent)
chain: GGAUCUUCUCGAUCUAACAAAAAAGACAAAUCUGCCACAAAGCUUGAGAGCAUCUUCGGAUGCAGAGGCGGCAGCCUUCGGUGGCGCGAUAGCGCCAACGUUCUCAACUAUGACACGCAAAACGCGUGCUCCGUUGAAUGGAGUUUAUCAUG

Variants of: B1
Assay: polymerase ribozyme fitness, log enrichment relative to wild type (log ratio); higher = more active; in vitro selection for triplet polymerase activity
Procedure, shortened: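 Both subunits of a heterodimeric triplet polymerase ribozyme were given their own mutant library, built by PCR and transcribed. Each library was annealed with a biotinylated primer, the partner subunit and triplets, incubated frozen at −7 °C, and its extended constructs gel-excised, captured on streptavidin beads and amplified by RT-PCR, all in one round done in triplicate. Fitness is the logarithm of genotype enrichment relative to wild-type enrichment, with replicates averaged by inverse-variance weighting. That logarithm is base 2, and Illumina-sequenced genotypes needed ≥10 input reads and ≥1 read per output.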

Row | Variant | polymerase ribozyme fitness (log ratio)
1 | GGAUCUUCUCGAUCUAACAAAAAAGACAAAUCUGCCACCAAGCUUGAGAGCAUCUUCGGAUGCAGAGGCGGCAGCCUUCGGUGGAGCGAUAGCGCCAACGUUCUCAACUAUGACACGAAAAACGCGUGCUCCGUUGAAUGGAGUUUAUCAUG [A39C C85A C118A] | -3.96
2 | GGAUCUUCUCGAUCUAACAAAAAAGACAAAUCUGCCACCAAGCUUGAGAGCAUCUUCGGAUGCAGAGGCGGCAGCCUUCGGUGGGGAGACAGCGCCAACGUUCUCAACUAUGACACGCAAAACGCGUGCUCCGUUGUAUGGAGUUUAUCAUG [A39C C85G C87A U90C A137U] | ≤ -4.2
3 | GGAUCUUCUCGAUCUAACAAAAAAGACAAAUCUGCCACCAAGCUUGAGAGCAUCUUCGGAUGCAGAGGCGGCAGCCUUCGGUGGCGGGAUAGCGCGAAGGUUCUCAACUAUGACACGCAAAACGCGUGCUCCGUUUCAUUCAGUUUAUCAUG [A39C C87G C96G C99G G136U A137C G140U G141C] | ≤ -4.2
4 | GGAUCUUCUCGAUCUAACAAAAAAGACAAAUCUGCCACCAAGCUUGAGAGCAUCUUCGGAUGCAGAGGCGGCAGCCUUCGGUGGCGCGAUAGUGCCAACGUUCUCAACUAUGACACGCAAAACGCGUGCUCCGUUGAAUGGAUUUUAUCAUG [A39C C93U G143U] | ≤ -4.2
5 | GGAUCUUCUCGAUCUAACAAAAAAGACAAAUCUGCCACCAAGCUUGAGAGCAUCUUCGGAUGCAGAGGCGGCAGCCUUCGGUGGCGCGAUAGCGCAAACGUUCUCAACUAUGACACGCAAAACGCGUGCUCCGUUGAAUGGAGGUUAGCAUG [A39C C96A U144G U148G] | ≤ -4.2
6 | GGAUCUUCUCGAUCUAACAAAAAAGACAAAUCUGCCACCAAACUUGAGAGCAUCUUCGGAUGCAGAGACGGCAGCCUUCGGUGGCGCGAUAGCGCCAACGUUCUCAACUAUGACACGCGAAAUGCGUGCUCCGUUGAGUGGAGUUUAUCAUG [A39C G42A G68A A119G C123U A138G] | ≤ -4.2
7 | GGAUCUUCUCGAUCUAACAAAAAAGACAAAUCUGCCACCAAGCUUGAUAGCAUCUUCGGAUGCAGAGGCGGCAGCCUUCGGUGGUGCGAUAGCGCCAACGUUCUUAACUAUGACACGAAAAACGCGUGCUCCGUUGAAUGGAGUUUAUCAUG [A39C G48U C85U C105U C118A] | ≤ -4.2
8 | GGAUCUUCUCGAUCUAACAAAAAAGACAAAUCUGCCACCAAGCUUGAGAGCAUCUUCCGAUGCAGAGGCGGCAGCCUUCGGUGGCGCGAGAGCGGCAACGUUCUCAACUAUGACACGCAAAACGCGUGCUCCGUUGAAUGGAGUUUAUCAUG [A39C G58C U90G C95G] | ≤ -4.2
9 | GGAUCUUCUCGAUCUAACAAAAAAGACAAAUCUGCCACCAAGCUUGAGAGCAUCUUCGAAUGCAGAGGCGGCAGCCUUCGGUGGCGUGAUAGCGCCAACGUUCUCAACUAUGACACGCAAAACGCGAGGUCCGUUGAAGGGAGUUUAUCAUG [A39C G59A C87U U127A C129G U139G] | ≤ -4.2
10 | GGAUCUUCUCGAUCUAACAAAAAAGACAAAUCUGCCACCAAGCUUGAGAGCAUCUUCGGAUACAGUGGCGGCAGCCUUCGGUGGCGCGAUAGCGCCAACGUUCUCAACUAUGACACGCAAAACGCGUGCUCCGGUGAAUGGAAUUUAUCAUG [A39C G62A A66U U134G G143A] | ≤ -4.2
11 | GGAUCUUCUCGAUCUAACAAAAAAGACAAAUCUGCCACCAAGCUUGAGAGCAUCUUCGGAUGCAGAGGCGGCAGCCUUCGGUGACGCGAUAGCGCCAACGUUCUCAACUAUGACACGCAAAACGCGUGCUCCGUUGAAUGGAGUUUAUCAUG [A39C G84A] | -3.26
12 | GGAUCUUCUCGAUCUAACAAAAAAGACAAAUCUGCCACCAAGCUUGAGAGCAUCUUCGGAUGCAGAGGCGGCAGCCUUCGGUGACGCGAUAGCGCCAACGUUCUCAACUAUGACACGCAAAACGCGUGCUCCGUUGAAUGGAUUUUAUCAUG [A39C G84A G143U] | ≤ -4.2
13 | GGAUCUUCUCGAUCUAACAAAAAAGACAAAUCUGCCACCAAGCUUGAGAGCAUCUUCGGAUGCAGAGGCGGCAGCCUUCGGUGACGCGAUAGCGCCAACGUUCUCAACUAUGACACGCAAAACGCGUGCUCCGUUGAAUGGAGAUUAUCAUG [A39C G84A U144A] | -2.69
14 | GGAUCUUCUCGAUCUAACAAAAAAGACAAAUCUGCCACCAAGCUUGAGAGCAUCUUCGGAUGCAGAGGCGGCAGCCUUCGGUGGCGCGAUAGCGCCAACGUUCUCAACUAUGACACGCAAAACGCGUGCUCCGUUGAAUGGAUUUUAUCAUG [A39C G143U] | -4.15
15 | GGAUCUUCUCGAUCUAACAAAAAAGACAAAUCUGCCACCAAGCGUGAGAGCGUCGUCGGAUGCAUAGGCGGCACCCUUCGGUGGUGCGAUAGCGCCAACGUUCUCAACUAUGACACGCAAAACGCGUGCUCCGUUGAAUGGAGUUUAUCAUG [A39C U44G A52G U55G G65U G74C C85U] | ≤ -4.2
16 | GGAUCUUCUCGAUCUAACAAAAAAGACAAAUCUGCCACCAAGCUGGAGAGCAUCUUCGGAUGCUAAGGCGGCAGCCUUCGGUGGCGCGAUAGCGCCAACGUUCUCAACUAUGACACGCAAAACGCGUGCUCCGUUGAAUGGAGUUUAUCAUG [A39C U45G A64U G65A] | ≤ -4.2
17 | GGAUCUUCUCGAUCUAACAAAAAAGACAAAUCUGCCACCAAGCUUGAGAGCAACUUCGGAUGCAGAGGCGGCAGCCUUCGGUGGCCCGAUAGCGCCAACGUUCUAAACUAUGACACGCUAAACGCGUGCUCCGUUGAAUGGAGUUUAUCAUG [A39C U53A G86C C105A A119U] | ≤ -4.2
18 | GGAUCUUCUCGAUCUAACAAAAAAGACAAAUCUGCCACCAAGCUUGAGAGCAUCGUCGGAUGCAGAGGCGGCAGCCUUCGGUGGCGCGAUGGCGCCAACGUUCUCAACUAUGACACGCAAAACGCGUGCUCCGUUGAAUGGGGUUUAUCAUG [A39C U55G A91G A142G] | ≤ -4.2
19 | GGAUCUUCUCGAUCUAACAAAAAAGACAAAUCUGCCACCAAGCUUGAGAGCAUCUGCGGAUGCAGAGGCGGCGGCCUUCGGUGGCGCGAUAGCGCCAACGUUCUCAACUAUGACACGCAAAACGCGUGCUCCGUUGAAUGGAGUUUAUCAUG [A39C U56G A73G] | -3.36
